# From PMC4336329 (PLoS ONE, 2015)
# The campaign covered roughly 310,000 compounds. About 2,200 (0.71%) showed an effect of 50% or more. The effect is printed as a negative number. The list shows a part of the results.
# Biological target: human ether-à-go-go-related gene (hERG) potassium channel (human, UniProt Q12809)
# Assay: primary screen, population patch clamp on CHO cells stably expressing hERG
# Sequence of human ether-à-go-go-related gene (hERG) potassium channel (Q12809 whole entry, looked up): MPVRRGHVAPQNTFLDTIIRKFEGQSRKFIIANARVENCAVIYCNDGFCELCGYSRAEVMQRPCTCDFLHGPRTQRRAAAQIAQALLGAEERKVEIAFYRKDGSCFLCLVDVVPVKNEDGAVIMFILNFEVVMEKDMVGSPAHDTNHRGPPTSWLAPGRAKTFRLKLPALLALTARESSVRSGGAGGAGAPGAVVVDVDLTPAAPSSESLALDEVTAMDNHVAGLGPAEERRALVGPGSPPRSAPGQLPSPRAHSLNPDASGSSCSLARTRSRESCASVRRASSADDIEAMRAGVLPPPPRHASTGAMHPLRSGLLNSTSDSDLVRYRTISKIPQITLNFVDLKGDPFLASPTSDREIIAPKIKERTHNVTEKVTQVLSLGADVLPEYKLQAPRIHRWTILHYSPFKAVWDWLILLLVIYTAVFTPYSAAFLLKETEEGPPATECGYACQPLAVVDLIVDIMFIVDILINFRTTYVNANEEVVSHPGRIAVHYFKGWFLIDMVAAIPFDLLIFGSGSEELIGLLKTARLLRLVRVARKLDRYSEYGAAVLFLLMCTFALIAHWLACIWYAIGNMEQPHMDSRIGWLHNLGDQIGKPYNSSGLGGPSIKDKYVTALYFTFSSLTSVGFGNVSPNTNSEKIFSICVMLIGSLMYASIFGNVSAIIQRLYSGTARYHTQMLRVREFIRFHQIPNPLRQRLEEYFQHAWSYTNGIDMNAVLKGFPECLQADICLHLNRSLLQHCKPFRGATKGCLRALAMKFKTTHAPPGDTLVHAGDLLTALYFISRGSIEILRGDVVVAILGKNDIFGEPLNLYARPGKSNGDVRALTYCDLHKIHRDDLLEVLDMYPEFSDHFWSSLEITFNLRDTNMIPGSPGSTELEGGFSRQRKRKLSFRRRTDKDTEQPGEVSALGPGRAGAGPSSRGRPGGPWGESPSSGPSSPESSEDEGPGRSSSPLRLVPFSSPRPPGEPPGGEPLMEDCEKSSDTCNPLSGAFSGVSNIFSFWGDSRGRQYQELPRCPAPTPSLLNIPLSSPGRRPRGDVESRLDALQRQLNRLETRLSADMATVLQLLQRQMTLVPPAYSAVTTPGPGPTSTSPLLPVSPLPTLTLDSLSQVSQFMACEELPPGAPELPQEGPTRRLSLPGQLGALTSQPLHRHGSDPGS
row,Structure (SMILES),"hERG current change (%, negative = inhibition) at 1uM"
1,CCOC(=O)Nc1ccc2c(c1)N(C(=O)N1CCN(C)CC1)c1ccccc1S2.Cl,-3.77%
2,O=C(Cn1cnc2c(nnn2Cc2ccccc2F)c1=O)NCC1CCCO1 (stereo not drawn),1.99%
3,CSc1nc(Oc2ccc(F)cc2)c2ccccc2n1,6.5%
4,O=C(c1ccc(S(=O)(=O)NCc2ccco2)cc1)N1CCN(Cc2ccccc2)CC1,-2.48%
5,COc1ccc(OCc2cnc(Cl)s2)cc1,13.8%
6,CC(=O)Nc1ccc(S(=O)(=O)/N=C2\C(=O)c3ccccc3C([O-])=C2n2cc[n+](-c3ccccn3)c2)cc1,6.58%
7,COc1ccc(S(=O)(=O)Nc2ccc(S(=O)(=O)Nc3ccc(F)cc3)cc2)cc1C,-0.526%
8,OC(COc1ccccc1)Cn1c2ccccc2c2ccccc21 (stereo not drawn),8.25%
9,Cc1ccc(N2C(=O)CC(Sc3ccccc3C(=O)O)C2=O)cc1C (stereo not drawn),16.3%
10,COc1cccc(NC(=O)C2CCOC2=O)c1 (stereo not drawn),18.5%
11,O=C(NCc1cccs1)c1cc2ccccc2o1,9.25%
12,CCCCn1c(N)c(N(Cc2ccccc2OC)C(=O)c2cc(CC)c(C)s2)c(=O)[nH]c1=O,6.37%
13,COCCNC(=O)CSc1nnc(-c2ccc(C)cc2)c(-c2ccc(C)cc2)n1,3.66%
14,CCOC(=O)N1CCC(NC(=O)C2CCN(C(=O)N3CC(C)Oc4ccc(C)cc43)CC2)CC1 (stereo not drawn),-7.89%
15,Cc1ccc(NC(=O)COC(=O)CCC(=O)c2cccs2)c(C)c1,9.96%
16,COc1ccc(OC)c(C2/C(=C(\O)c3ccc4c(c3)OCCO4)C(=O)C(=O)N2CC2CCCO2)c1 (stereo not drawn),2.13%
17,COc1ccc(CCNC(=O)CN(c2ccc(OC)c(OC)c2)S(C)(=O)=O)cc1OC,-3.95%
18,COc1ccc(OCC(O)CNC(=O)c2sccc2Cl)cc1 (stereo not drawn),0.0429%
19,CSC1=C(C#N)C2(CCCC2)C(C#N)=C(N)N1,5.05%

row,Structure (SMILES),"hERG current change (%, negative = inhibition) at 1uM"
1,O=C(O)CCCNC(=O)/C(=C\c1ccccc1F)NC(=O)c1ccccc1,13.5%
2,Cc1cc(C(=O)COc2cc(F)ccc2[N+](=O)[O-])c(C)n1C1CC1,3.77%
3,CC1CCC2(CC1)NC(=O)N(CC(=O)NC(C)c1ccc(F)c(F)c1)C2=O (stereo not drawn),-7.07%
4,COc1ccc(-c2csc(NC(=O)c3nc(-c4ccccc4)oc3C)n2)cc1,12.7%
5,O=C(c1ccc(Cl)c(S(=O)(=O)N2CCCCCC2)c1)N1CCCCC1,11.2%
6,O=C(NC(=S)Nc1ccc(S(=O)(=O)Nc2nccs2)cc1)c1ccc(Br)o1,14.6%
7,COc1ccc2c(c1[N+](=O)[O-])CCC/C2=N/OC(=O)c1cccc2ccccc12,13.3%
8,CN(C)CC(=O)Nc1ccc2cn[nH]c2c1,7.53%
9,CN(C)c1ncnc2sc(-c3ccccc3)cc12,10.6%
10,CCOC(=O)c1cc2cc(OC)ccc2[nH]1,1.1%
11,COc1ccc(C(=O)NC(=S)Nc2nc(C)c(C(=O)N(C)C)s2)cc1,10.3%
12,Cc1oc(-c2ccccc2Cl)nc1CSCC(=O)O,3.61%
13,CC(=O)C1=C(c2ccccc2)OC(N)=C(C#N)C1c1ccc(O)cc1 (stereo not drawn),4%
14,Cc1cc(=O)[nH]c(SCC(=O)Nc2ccnc3ccccc23)n1,9.07%
15,CCCCN=CC1=C(O)C(C(=O)OC)C(C)(C)CC1=O (stereo not drawn),17.4%
16,C=C1CCN([C@@H](C)C(=O)NCCCCCC)S(=O)(=O)c2ccccc21,-13.6%
17,Cc1cccc(C(=O)O/N=C/c2c(N3CCOCC3)n(C)c3ccccc23)c1,-11.3%
18,C[C@@H]1NC(=O)N(CCCn2ccnc2)C1=O,8.11%
19,CCOC(=O)Cc1csc(NS(=O)(=O)Cc2ccccc2)n1,16%

row,Structure (SMILES),"hERG current change (%, negative = inhibition) at 1uM"
1,O=C(CN(Cc1ccco1)C(=O)CCC(=O)Nc1ccccn1)NCc1ccccc1,12.3%
2,O=C(CSc1nnnn1-c1cccc(Cl)c1)Nc1ccc2c(c1)CCC2,5.76%
3,COc1ccc(NC(=O)c2cn(C)c(=O)c3cc(OC)c(OC)cc23)c(OC)c1,13%
4,Cc1cccc(OCCN2C(=O)c3ccccc3C2=O)c1,17.7%
5,C/C=C\C(=O)Nc1cccc(C2=NOC3(C2)C[C@@H](C(N)=O)N(C(=O)c2ccccc2)C3)c1 (stereo partly drawn),11.6%
6,CCOCCCNCc1ccc(OCc2ccc(F)cc2)c(OC)c1.Cl,-3.15%
7,CCS(=O)(=O)N1Cc2ccccc2CC1C(=O)Nc1nc2ccccc2s1 (stereo not drawn),9.11%
8,Cc1cc(C)nc(SCC2COc3ccccc3O2)n1 (stereo not drawn),10.4%
9,CCOC(=O)C1CCN(C(=O)c2cc3c(OC)c(OC)c(OC)cc3[nH]2)CC1,14%
10,Cc1ccc2c(c1)S/C(=C\c1cccc[n+]1C)N2CCO.[I-],13.7%
11,CN1CCN(S(=O)(=O)c2cccc(C(=O)Nc3cc(Cl)ccc3N3CCOCC3)c2)CC1,4.76%
12,COC(=O)CSc1nc(N)c(C#N)c(C(C)C)c1C#N,17.3%
13,CSc1ccc(C(=O)C2CCCN(Cc3cccnc3)C2)cc1 (stereo not drawn),-4.37%
14,CCc1ccc(C(=O)CSc2nc3cc(S(=O)(=O)N4CCOCC4)ccc3n2CC)cc1,-3.48%
15,CC(C)COc1cccc(C(=O)Nc2ccc(S(=O)(=O)N3CCOCC3)cc2)c1,12.6%
16,Fc1ccc(Nc2ccc(-c3ccc(F)cc3)nn2)cc1,9.4%
17,Cc1cc(C)nc(Nc2ccc(F)cc2)n1,13%
18,CCOc1nc(Nc2ccccc2)nc(OCC)n1,4.42%
19,CC(C)C(NC(=O)CNC(=O)OC(C)(C)C)C(=O)NCc1ccc(Cl)cc1 (stereo not drawn),7.98%
